{"source": "the supplement of paper PMC8728848", "assay_in_all_cases": "glycan array binding signal (z-score within array); higher = stronger binding", "conditions_in_all_cases": "glycan notation: IUPAC condensed, linker removed", "key": {"[1]": {"target": "Neu5Ac(a2-8)Neu5Ac", "outline": "(§1)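 From the Consortium for Functional Glycomics database, 3228 arrays were curated, keeping only those whose protein sequence was available. Binding is given as a within-array Z-score averaged across arrays sharing a protein sequence and across linkers. Negative Z-scores can be read as non-binding.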"}, "[2]": {"target": "Neu5Ac(a2-8)Neu5Ac(a2-3)Gal(b1-3)GalNAc(b1-4)[Neu5Ac(a2-3)]Gal(b1-4)Glc", "outline": "as §1"}, "[3]": {"target": "Neu5Ac(a2-8)Neu5Ac(a2-3)Gal(b1-3)GalNAc(b1-4)[Neu5Ac(a2-8)Neu5Ac(a2-3)]Gal(b1-4)Glc", "outline": "as §1"}, "[4]": {"target": "Neu5Ac(a2-8)Neu5Ac(a2-3)Gal(b1-4)Glc", "outline": "as §1"}, "[5]": {"target": "Neu5Ac(a2-8)Neu5Ac(a2-3)Gal(b1-4)GlcNAc", "outline": "as §1"}, "[6]": {"target": "Neu5Ac(a2-8)Neu5Ac(a2-3)[Gal(b1-3)GalNAc(b1-4)]Gal(b1-4)Glc", "outline": "as §1"}, "[7]": {"target": "Neu5Ac(a2-8)Neu5Ac(a2-3)[GalNAc(b1-4)]Gal(b1-4)Glc", "outline": "as §1"}, "[8]": {"target": "Neu5Ac(a2-8)Neu5Ac(a2-8)Neu5Ac", "outline": "as §1"}, "[9]": {"target": "Neu5Ac(a2-8)Neu5Ac(a2-8)Neu5Ac(a2-3)Gal(b1-4)Glc", "outline": "as §1"}, "[10]": {"target": "Neu5Ac(a2-8)Neu5Ac(a2-8)Neu5Ac(a2-3)[Gal(b1-3)GalNAc(b1-4)]Gal(b1-4)Glc", "outline": "as §1"}, "[11]": {"target": "Neu5Ac(a2-8)Neu5Ac(a2-8)Neu5Ac(a2-3)[GalNAc(b1-4)]Gal(b1-4)Glc", "outline": "as §1"}, "[12]": {"target": "Neu5Ac(a2-8)Neu5Ac(a2-8)Neu5Ac(a2-8)Neu5Ac(a2-3)[GalNAc(b1-4)]Gal(b1-4)Glc", "outline": "as §1"}, "[13]": {"target": "Neu5Ac(a2-8)Neu5Gc(a2-3)Gal(b1-4)GlcNAc", "outline": "as §1"}, "[14]": {"target": "Neu5Ac(b2-6)Gal(b1-4)GlcNAc", "outline": "as §1"}, "[15]": {"target": "Neu5Ac(b2-6)GalNAc", "outline": "as §1"}, "[16]": {"target": "Neu5Ac9Ac(a2-3)Gal(b1-3)GlcNAc", "outline": "as §1"}, "[17]": {"target": "Neu5Ac9Ac(a2-3)Gal(b1-4)GlcNAc", "outline": "as §1"}, "[18]": {"target": "Neu5Ac9Ac(a2-6)Gal(b1-4)GlcNAc", "outline": "as §1"}, "[19]": {"target": "Neu5Gc(a2-3)Gal(b1-3)GlcNAc", "outline": "as §1"}, "[20]": {"target": "Neu5Gc(a2-3)Gal(b1-3)[Fuc(a1-4)]GlcNAc", "outline": "as §1"}, "[21]": {"target": "Neu5Gc(a2-3)Gal(b1-4)Glc", "outline": "as §1"}, "[22]": {"target": "Neu5Gc(a2-3)Gal(b1-4)GlcNAc", "outline": "as §1"}, "[23]": {"target": "Neu5Gc(a2-3)Gal(b1-4)GlcNAc(b1-3)Gal(b1-4)GlcNAc(b1-2)Man(a1-3)[Neu5Gc(a2-3)Gal(b1-4)GlcNAc(b1-3)Gal(b1-4)GlcNAc(b1-2)Man(a1-6)]Man(b1-4)GlcNAc(b1-4)GlcNAc", "outline": "as §1"}, "[24]": {"target": "Neu5Gc(a2-3)Gal(b1-4)[Fuc(a1-3)]GlcNAc", "outline": "as §1"}, "[25]": {"target": "Neu5Gc(a2-6)Gal(b1-4)GlcNAc", "outline": "as §1"}, "[26]": {"target": "Neu5Gc(a2-6)GalNAc", "outline": "as §1"}, "[27]": {"target": "Neu5Gc(a2-8)Neu5Ac(a2-3)Gal(b1-4)GlcNAc", "outline": "as §1"}, "[28]": {"target": "Neu5Gc(a2-8)Neu5Gc(a2-3)Gal(b1-4)GlcNAc", "outline": "as §1"}, "[29]": {"target": "Neu5Gc(a2-8)Neu5Gc(a2-3)Gal(b1-4)GlcNAc(b1-3)Gal(b1-4)GlcNAc", "outline": "as §1"}, "[30]": {"target": "Neu5Gc(a2-8)Neu5Gc(a2-6)Gal(b1-4)GlcNAc", "outline": "as §1"}, "[31]": {"target": "Neu5Gc(b2-6)Gal(b1-4)GlcNAc", "outline": "as §1"}}, "note": "The other results are listed elsewhere or left out."}
{"binder": "PX9961C-bth-497-22-497 (Bacteroides thetaiotaomicron) (protein) DWLDLNTTSSVETGQAIVTLDDAQIALNGIYRLASGHSYYGDNYWYYGDCRAADVQARITKGDGKRVSPYYEYNVLASDNLNIVLPWNTVYKVIRQTNNLIQKIESGSIQSSDTKELNRIKSEALVMRGLSLFNLTRLFGMPYTNDKGASLGVPIETSPSDPTHKPSRSTVAQCYEQVVSDMSNALSGLRQETSNGYINYWAAQALLSRVYLNMGEYQKAYDAATDVIKNNGGRYQLYSYEEYPNVWGQDFQSESLFELYITLSEPSGGTGGEGAPMVYANEATVDWNNLILSEDFLNLLNEDPKDVRHCLTKESVIENNTGLPAAAMHEKVYLAKFPGKTGDDPKTNNICIIRLSEVYLNAAEAGLKKGTDIEEAQGYLNDIISRRTTDTSQQVSTETFTLDRILKERRKELVGEGEVFYDYLRNGLAIERKGSWHLETLKASNAQKIEATDLRIALPIPQSEIDANPNIQQNPR", "values": [{"measurement": "glycan array binding signal (z-score)", "setting": "[1]", "result": -0.167}, {"measurement": "glycan array binding signal (z-score)", "setting": "[2]", "result": -0.039}, {"measurement": "glycan array binding signal (z-score)", "setting": "[3]", "result": -0.295}, {"measurement": "glycan array binding signal (z-score)", "setting": "[4]", "result": -0.311}, {"measurement": "glycan array binding signal (z-score)", "setting": "[5]", "result": -0.198}, {"measurement": "glycan array binding signal (z-score)", "setting": "[6]", "result": -0.253}, {"measurement": "glycan array binding signal (z-score)", "setting": "[7]", "result": -0.361}, {"measurement": "glycan array binding signal (z-score)", "setting": "[8]", "result": -0.178}, {"measurement": "glycan array binding signal (z-score)", "setting": "[9]", "result": 0.663}, {"measurement": "glycan array binding signal (z-score)", "setting": "[10]", "result": -0.241}, {"measurement": "glycan array binding signal (z-score)", "setting": "[11]", "result": -0.316}, {"measurement": "glycan array binding signal (z-score)", "setting": "[12]", "result": 0.258}, {"measurement": "glycan array binding signal (z-score)", "setting": "[13]", "result": 13.7}, {"measurement": "glycan array binding signal (z-score)", "setting": "[14]", "result": 0.027}, {"measurement": "glycan array binding signal (z-score)", "setting": "[15]", "result": -0.424}, {"measurement": "glycan array binding signal (z-score)", "setting": "[16]", "result": -1.08}, {"measurement": "glycan array binding signal (z-score)", "setting": "[17]", "result": -0.26}, {"measurement": "glycan array binding signal (z-score)", "setting": "[18]", "result": 0.211}, {"measurement": "glycan array binding signal (z-score)", "setting": "[19]", "result": -0.496}, {"measurement": "glycan array binding signal (z-score)", "setting": "[20]", "result": -0.425}, {"measurement": "glycan array binding signal (z-score)", "setting": "[21]", "result": -0.693}, {"measurement": "glycan array binding signal (z-score)", "setting": "[22]", "result": -0.62}, {"measurement": "glycan array binding signal (z-score)", "setting": "[23]", "result": 0.193}, {"measurement": "glycan array binding signal (z-score)", "setting": "[24]", "result": -0.294}, {"measurement": "glycan array binding signal (z-score)", "setting": "[25]", "result": -0.448}, {"measurement": "glycan array binding signal (z-score)", "setting": "[26]", "result": -0.538}, {"measurement": "glycan array binding signal (z-score)", "setting": "[27]", "result": 0.361}, {"measurement": "glycan array binding signal (z-score)", "setting": "[28]", "result": -0.354}, {"measurement": "glycan array binding signal (z-score)", "setting": "[29]", "result": 0.531}, {"measurement": "glycan array binding signal (z-score)", "setting": "[30]", "result": 0.262}, {"measurement": "glycan array binding signal (z-score)", "setting": "[31]", "result": -0.207}]}
